{"source": "the supplement of paper PMC12217912", "parents": {"B1": {"name": "TEV protease; numbered along this chain (parent)", "chain": "MGESLFKGPRDYNPISSSICHLTNESDGHTTSLYGIGFGPFIITNKHLFRRNNGTLVVQSLHGVFKVKDTTTLQQHLVDGRDMIIIRMPKDFPPFPQKLKFREPQREERICLVTTNFQTKSMSSMVSDTSCTFPSGDGIFWKHWIQTKDGQCGSPLVSTRDGFIVGIHSASNFTNTNNYFTSVPKNFMELLTNQEAQQWVSGWRLNADSVLWGGHKVFMVKPEEPFQPVKEATQL"}}, "variants_of": "B1", "assay": "raw area under fraction-flipped curve 0-4 h after induction (AUC4h, not background-subtracted), DNA-recorder readout of cleavage of the substrate (dimensionless); higher = more cleavage of the substrate by the protease variant", "settings": "temperature: 34 °C; time window: 0-4 h after rhamnose induction", "note": "The list shows a part of the results. The full chains were built here from the parent and the listed change. Values near 0.05 are background.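 Further: Bxb1 expression induced with 0.2% (w/v) L-rhamnose at OD600 near 0.5, cultures sampled hourly, flipped fraction per protease–substrate barcode pair counted by paired-end Illumina sequencing.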"}
{"variant": "MGESLFKGPRDYNPISSSICHLTNESDGHTTSLYGIGFGPFIITNKHLFRRNNGTLVVQSLHGVFKVKDTTTLQQHLVDGRDMIIIRMPKDFPPDPQKLKFREPQREERICLVTTNFQTKSMSSMVSDTSCTFPSGDGIFWKHWIQTKDGQCGSPLVSTRDGFIVGIHSASNFTNTNNYFTSVPKNFMELLTNQEAQQWVSGWRLNADSVLWGGHKVFMVKPEEPFQPVKEATQL", "note": "[F95D]", "values": [{"measurement": "area with substrate ENLYFDS", "value": 0.0381}, {"measurement": "area with substrate ENLYFFS", "value": 0.0657}, {"measurement": "area with substrate ENLYFGS", "value": 0.0405}, {"measurement": "area with substrate ENLYFMS", "value": 0.0541}, {"measurement": "area with substrate ENLYFNS", "value": 0.0572}, {"measurement": "area with substrate ENLYFPS", "value": 0.0474}, {"measurement": "area with substrate ENLYFSS", "value": 0.0507}, {"measurement": "area with substrate ENLYFVS", "value": 0.0435}]}
{"variant": "MGESLFKGPRDYNPISSSICHLTNESDGHTTSLYGIGFGPFIITNKHLFRRNNGTLVVQSLHGVFKVKDTTTLQQHLVDGRDMIIIRMPNDFPPFPQKLKFREPQREERICLVTTNFQTKSMSSMVSDTSCTFPSGDGIFWKHWIQTKDGQCGSPLVSTRDGFIVGIHSASNFTNTNNYFTSVPKNFMELLTNQEAQQWVSGWRLNADSVLWGGHKVFMVKPEEPFQPVKEATQL", "note": "[K90N]", "values": [{"measurement": "area with substrate ENLYFDS", "value": 0.0571}, {"measurement": "area with substrate ENLYFES", "value": 0.0837}, {"measurement": "area with substrate ENLYFGS", "value": 0.0674}, {"measurement": "area with substrate ENLYFHS", "value": 0.0834}, {"measurement": "area with substrate ENLYFIS", "value": 0.0596}, {"measurement": "area with substrate ENLYFKS", "value": 0.0719}, {"measurement": "area with substrate ENLYFLS", "value": 0.0827}, {"measurement": "area with substrate ENLYFMS", "value": 0.0581}, {"measurement": "area with substrate ENLYFTS", "value": 0.0633}, {"measurement": "area with substrate ENLYFVS", "value": 0.0667}]}
{"variant": "MGESLFKGPRDYNPISSSICHLTNESDGHTTSLYGIGFGPFIITNKHLFRRNNGTLVVQSLHGVFKVKDTTTLQQHLVDGRDMIIIRMPKDFPPFPQKLKFREPQREERICLVTTNFDTKSMSSMVSDTSCTFPSGDGIFWKHWIQTKDGQCGSPLVSTRDGFIVGIHSASNFTNTNNYFTSVPKNFMELLTNQEAQQWVSGWRLNADSVLWGGHKVFMVKPEEPFQPVKEATQL", "note": "[Q118D]", "values": [{"measurement": "area with substrate ENLYFDS", "value": 0.0679}, {"measurement": "area with substrate ENLYFES", "value": 0.065}, {"measurement": "area with substrate ENLYFLS", "value": 0.0571}, {"measurement": "area with substrate ENLYFMS", "value": 0.0631}, {"measurement": "area with substrate ENLYFPS", "value": 0.0535}, {"measurement": "area with substrate ENLYFWS", "value": 0.0527}]}
{"variant": "MGESLFKGPRDYNPISSSICHLTNESDGHTTSLYGIGFGPFIITNKHLFRRNNGTLVVQSLHGVFKVKDTTTLQQHLVDSRDMIIIRMPKDFPPFPQKLKFREPQREERICLVTTNFQTKSMSSMVSDTSCTFPSGDGIFWKHWIQTKDGQCGSPLVSTRDGFIVGIHSASNFTNTNNYFTSVPKNFMELLTNQEAQQWVSGWRLNADSVLWGGHKVFMVKPEEPFQPVKEATQL", "note": "[G80S]", "values": [{"measurement": "area with substrate ENLYFDS", "value": 0.0589}, {"measurement": "area with substrate ENLYFES", "value": 0.0579}, {"measurement": "area with substrate ENLYFFS", "value": 0.0867}, {"measurement": "area with substrate ENLYFGS", "value": 0.0718}, {"measurement": "area with substrate ENLYFIS", "value": 0.045}, {"measurement": "area with substrate ENLYFKS", "value": 0.0618}, {"measurement": "area with substrate ENLYFMS", "value": 0.0432}, {"measurement": "area with substrate ENLYFPS", "value": 0.0633}, {"measurement": "area with substrate ENLYFRS", "value": 0.0579}, {"measurement": "area with substrate ENLYFWS", "value": 0.0441}]}
{"variant": "MGESLFKGPRDYNPISSSICHLTNESDGHTTSLYGIGFGPFIITNKHLFRRNNGTLVVQSLHGVFKVKDTTTLQQHLVDGRDMIIIRMPKDFPPFPQKLKFREPQREERICLVTTNFQTKSMSSMVSDTSCTFPSGDGIFWKHWIQTKDGQCGSPLVSTRDIFIVGIHSASNFTNTNNYFTSVPKNFMELLTNQEAQQWVSGWRLNADSVLWGGHKVFMVKPEEPFQPVKEATQL", "note": "[G162I]", "values": [{"measurement": "area with substrate ENLYFDS", "value": 0.057}, {"measurement": "area with substrate ENLYFIS", "value": 0.0482}, {"measurement": "area with substrate ENLYFKS", "value": 0.0589}, {"measurement": "area with substrate ENLYFMS", "value": 0.0641}, {"measurement": "area with substrate ENLYFPS", "value": 0.066}, {"measurement": "area with substrate ENLYFSS", "value": 0.0465}, {"measurement": "area with substrate ENLYFYS", "value": 0.0484}]}
{"variant": "MGESLFKGPRDYNPISSSICHLTNESDGHTTSLYGIGFGPFIITNKHLFRRNNGTLVVQSLHGVFKVKDTTTLQQHLVDGRDMIIIRMPKNFPPFPQKLKFREPQREERICLVTTNFQTKSMSSMVSDTSCTFPSGDGIFWKHWIQTKDGQCGSPLVSTRDGFIVGIHSASNFTNTNNYFTSVPKNFMELLTNQEAQQWVSGWRLNADSVLWGGHKVFMVKPEEPFQPVKEATQL", "note": "[D91N]", "values": [{"measurement": "area with substrate ENLYFDS", "value": 0.0645}, {"measurement": "area with substrate ENLYFFS", "value": 0.0577}, {"measurement": "area with substrate ENLYFGS", "value": 0.064}, {"measurement": "area with substrate ENLYFIS", "value": 0.0669}, {"measurement": "area with substrate ENLYFMS", "value": 0.0461}, {"measurement": "area with substrate ENLYFPS", "value": 0.0569}, {"measurement": "area with substrate ENLYFTS", "value": 0.0479}, {"measurement": "area with substrate ENLYFWS", "value": 0.0753}]}
{"variant": "MGESLFKGPRDYNPISSSICHLTNESDGHTTSLYGIGFGPFIITNKHLFRRNNGTLVVQSLHGVFKVKDTTTLQQHLVDGRDMRIIRMPKDFPPFPQKLKFREPQREERICLVTTNFQTKSMSSMVSDTSCTFPSGDGIFWKHWIQTKDGQCGSPLVSTRDGFIVGIHSASNFTNTNNYFTSVPKNFMELLTNQEAQQWVSGWRLNADSVLWGGHKVFMVKPEEPFQPVKEATQL", "note": "[I84R]", "values": [{"measurement": "area with substrate ENLYFDS", "value": 0.0548}, {"measurement": "area with substrate ENLYFFS", "value": 0.0628}, {"measurement": "area with substrate ENLYFIS", "value": 0.056}, {"measurement": "area with substrate ENLYFKS", "value": 0.0574}, {"measurement": "area with substrate ENLYFLS", "value": 0.0533}, {"measurement": "area with substrate ENLYFMS", "value": 0.0797}, {"measurement": "area with substrate ENLYFNS", "value": 0.0554}, {"measurement": "area with substrate ENLYFRS", "value": 0.0703}, {"measurement": "area with substrate ENLYFTS", "value": 0.0756}, {"measurement": "area with substrate ENLYFWS", "value": 0.066}]}
{"variant": "MGESLFKGPRDYNPISSSICHLTNESDGHTTSLYGIGFGPFIITNKHLFRRNNGTLVVQSLHGVFKVKDTTTLQQHLVDGRDMIILRMPKDFPPFPQKLKFREPQREERICLVTTNFQTKSMSSMVSDTSCTFPSGDGIFWKHWIQTKDGQCGSPLVSTRDGFIVGIHSASNFTNTNNYFTSVPKNFMELLTNQEAQQWVSGWRLNADSVLWGGHKVFMVKPEEPFQPVKEATQL", "note": "[I86L]", "values": [{"measurement": "area with substrate ENLYFDS", "value": 0.0409}, {"measurement": "area with substrate ENLYFFS", "value": 0.0576}, {"measurement": "area with substrate ENLYFIS", "value": 0.069}, {"measurement": "area with substrate ENLYFMS", "value": 0.0627}, {"measurement": "area with substrate ENLYFPS", "value": 0.0649}, {"measurement": "area with substrate ENLYFSS", "value": 0.0667}, {"measurement": "area with substrate ENLYFTS", "value": 0.0593}, {"measurement": "area with substrate ENLYFWS", "value": 0.0464}, {"measurement": "area with substrate ENLYFYS", "value": 0.0267}]}
{"variant": "MGESLFKGPRDYNPISSSICHLTNESDGHTTSLYGIGFGPFIITNKHLFRRNNGTLVVQSLHGVFKVKDTTTLQQHLVDGRDMIIIRMPKDFPPFPQKLKFREPQREERICLVTTNFQTKSMSSMVSDTSCTFPSGDGIFWKHWIQTKDGQCKSPLVSTRDGFIVGIHSASNFTNTNNYFTSVPKNFMELLTNQEAQQWVSGWRLNADSVLWGGHKVFMVKPEEPFQPVKEATQL", "note": "[G153K]", "values": [{"measurement": "area with substrate ENLYFDS", "value": 0.0453}, {"measurement": "area with substrate ENLYFES", "value": 0.0505}, {"measurement": "area with substrate ENLYFIS", "value": 0.0577}, {"measurement": "area with substrate ENLYFKS", "value": 0.0544}, {"measurement": "area with substrate ENLYFLS", "value": 0.0465}, {"measurement": "area with substrate ENLYFMS", "value": 0.0667}, {"measurement": "area with substrate ENLYFRS", "value": 0.0344}, {"measurement": "area with substrate ENLYFTS", "value": 0.0499}, {"measurement": "area with substrate ENLYFWS", "value": 0.0647}, {"measurement": "area with substrate ENLYFYS", "value": 0.04}]}
{"variant": "MGESLFKGPRDYNPISSSICHLTNESDGHTTSLYGIGFGPFIITNKHLFRRNNGTLVVQSLHGVFKVKDTTTLQQHLVDGRDMIIIRMPKDFPPFPQKLKFREPQREFRICLVTTNFQTKSMSSMVSDTSCTFPSGDGIFWKHWIQTKDGQCGSPLVSTRDGFIVGIHSASNFTNTNNYFTSVPKNFMELLTNQEAQQWVSGWRLNADSVLWGGHKVFMVKPEEPFQPVKEATQL", "note": "[E108F]", "values": [{"measurement": "area with substrate ENLYFDS", "value": 0.0213}, {"measurement": "area with substrate ENLYFIS", "value": 0.0525}, {"measurement": "area with substrate ENLYFMS", "value": 0.0466}, {"measurement": "area with substrate ENLYFNS", "value": 0.0624}, {"measurement": "area with substrate ENLYFSS", "value": 0.0557}, {"measurement": "area with substrate ENLYFYS", "value": 0.0606}]}
{"variant": "MGESLFKGPRDYNPISSSICHLTNESDGHTTSLYGIGFGPFIITNKHLFRRNNGTLVVQSLHGVFKVKDTTTLQQHLVDGRDMIIIRMPKDFPPFPQKLKFREPQREERICLVTTNFQTKSMSSMVWDTSCTFPSGDGIFWKHWIQTKDGQCGSPLVSTRDGFIVGIHSASNFTNTNNYFTSVPKNFMELLTNQEAQQWVSGWRLNADSVLWGGHKVFMVKPEEPFQPVKEATQL", "note": "[S127W]", "values": [{"measurement": "area with substrate ENLYFDS", "value": 0.0699}, {"measurement": "area with substrate ENLYFFS", "value": 0.0566}, {"measurement": "area with substrate ENLYFIS", "value": 0.0514}, {"measurement": "area with substrate ENLYFLS", "value": 0.059}, {"measurement": "area with substrate ENLYFMS", "value": 0.0829}, {"measurement": "area with substrate ENLYFNS", "value": 0.0837}, {"measurement": "area with substrate ENLYFPS", "value": 0.0596}, {"measurement": "area with substrate ENLYFRS", "value": 0.0909}, {"measurement": "area with substrate ENLYFTS", "value": 0.0588}, {"measurement": "area with substrate ENLYFVS", "value": 0.0634}, {"measurement": "area with substrate ENLYFWS", "value": 0.0461}]}
